In PubChem BioAssay (NCATS):
Values joined by “and” are separate entries in the source; they are usually repeats but may differ in a detail not shown here. Equal entries are not always repeated. Inconclusive results, whose numbers are uncertain, are shown with a selection of clear calls. For part of these data: Potencies of inconclusive entries are doubtful fits and often do not repeat. For part of these data: “Side channel” marks fits to a control or component signal instead of the main read-out. Active and inactive are the calls of the source. Unless noted, calls follow the shape of the dose curve; as a rule, active = well fitted curve in the direction sought with a large enough effect; inconclusive = small, poorly fitted or top-dose-only effect, or another doubt; inactive = no such curve, though single readings can be large; an effect the other way counts as inactive or inconclusive.

Columns and labels:
[1] = Cellular Toxicity (caspase-3) HepG2 (AID 654); also: potency is read from the fitted curve at half-maximal effect
Procedure, shortened: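 Caspase 3/7 activation is measured as a luminescence increase (aminoluciferin substrate) after 16 h compound exposure of human hepatocarcinoma HepG2 cells. AC50 values are Hill fits, scaled between DMSO baseline and 100 uM tamoxifen stimulation.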

[2] = Cellular Toxicity (caspase-3) Jurkat (AID 655); details: Jurkat caspase-3 activation, luminescence, DMSO = 0%, tamoxifen = 100%; at 92.2 µM (top of the series);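 also: cells exposed to compound for 16 h at 37 °C before reading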
Procedure, shortened: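 Caspase 3/7 activation is scored as increased luminescence in Jurkat cells cultured with compound for 16 hours in complete medium. AC50 values come from Hill fits of qHTS concentration-response data normalized to DMSO and 100 uM tamoxifen controls.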

[3] = Cellular Toxicity (caspase-3) H-4-II-E (AID 663); details: H-4-II-E rat hepatoma, scaled: DMSO 0%, 100 µM tamoxifen 100%; at 92.2 µM (top of the series);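 also: cells exposed to compound for 16 hr before readout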
Procedure, shortened: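 Caspase 3/7 activation measured in H-4-II-E cells in complete culture medium after 16 hr treatment at 37 °C, using luciferase-coupled substrate readout; AC50 values come from Hill-equation fits of normalized concentration-response data.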

[4] = Cellular Toxicity (caspase-3) Hek293 (AID 664); details: HEK293 caspase-3 activation, DMSO = 0%, 100 µM tamoxifen = 100%; at 92.2 µM (top of the series);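 also: cells exposed to compound for 16 h at 37 °C before readout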
Procedure, shortened: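 Concentration-response qHTS: caspase 3/7 activation measured by luminescent aminoluciferin substrate cleavage after 16 h compound exposure of Hek 293 cells. AC50 from Hill equation, with DMSO as basal and 100 uM tamoxifen as 100%.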

[5] = Cell Viability - LYMP2-001 (AID 921); details: LYMP2-001 lymphoblastoid cell viability; activity change, negative = cytotoxic: at 92.2 µM (top of the series); also: potency is read from the fitted curve at half-maximal effect; nearly all actives have a fitted effect of over 70% in size
Procedure, shortened: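 qHTS, 1536-well; lymphoblastoid cells, 24 hr compound, 37 C; ATP by CellTiter-Glo, 30 min RT; luminescence; Hill-fit AC50.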

[6] = MultiTox-Fluor Cytotoxicity Assay - LYMP1-002 - Dead Cells (AID 960); details: LYMP1-002 lymphoblastoid cells, dead-cell protease fluorescence; cytotoxicity (dead cells): at 46.1 µM (top of the series); also: potency is read from the fitted curve at half-maximal effect; nearly all actives have a fitted effect of over 60% in size
Procedure, shortened: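 Dead-cell fluorescence (Ex/Em 485/520) after 16 h compound exposure at 37 C of LYMP1-002 lymphoblastoid cells in complete medium; AC50 by Hill equation, with data scaled between DMSO and 15 uM tetraoctylammonium bromide.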

[7] = Cell Viability - LYMP2-003 (AID 965); details: LYMP2-003 lymphoblastoid cell viability; activity change, negative = cytotoxicity: at 92.2 µM (top of the series);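 also: potency is read from the fitted curve at half-maximal effect; cells exposed to compounds for 24 h before reading; nearly all actives have a fitted effect of over 50% in size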
Procedure, shortened: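 Acute cytotoxicity is scored as a concentration-dependent drop in intracellular ATP, measured by luciferase luminescence in human lymphoblastoid cells treated for 24 hours at 37 C. AC50 values derive from Hill-equation modelling.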

[8] = Cell Viability - LYMP2-004 (AID 966); details: LYMP2-004 lymphoblastoid cell viability, qHTS; activity change, negative = cytotoxicity: at 92.2 µM (top of the series); also: potency is read from the fitted curve at half-maximal effect; nearly all actives have a fitted effect of over 65% in size
Procedure, shortened: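 AC50 values come from Hill modelling of concentration-dependent loss of intracellular ATP, measured by CellTiter-Glo luminescence. Human LYMP2-004 lymphoblastoid cells (2500/well) were exposed to compound for 24 h at 37 C.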

[9] = Cell Viability - LYMP2-005 (AID 967); also: potency is read from the fitted curve at half-maximal effect
Procedure, shortened: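 qHTS viability screen in LYMP2-005 cells: 24 h at 37 C with compound, ATP luminescence via CellTiter-Glo, AC50 from Hill curves.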

[10] = Cell Viability - LYMP2-009 (AID 968); details: LYMP2-009 lymphoblastoid cell viability; activity change, negative = viability loss: at 92.2 µM (top of the series); also: potency is read from the fitted curve at half-maximal effect; nearly all actives have a fitted effect of over 55% in size
[11] = Cell Viability - LYMP2-013 (AID 970); also: potency is read from the fitted curve at half-maximal effect; nearly all actives have a fitted effect of over 55% in size
Procedure, shortened: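 qHTS cytotoxicity: ATP-dependent luminescence (CellTiter-Glo, 30 min room temperature) read after 24 h compound exposure at 37 C of 2500 LYMP2-013 lymphoblastoid cells per well. Concentration-response fitted with Hill equation to give AC50.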

[12] = Cell Viability - LYMP2-015 (AID 971); also: potency is read from the fitted curve at half-maximal effect; nearly all actives have a fitted effect of over 55% in size
Procedure, shortened: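 Cytotoxicity readout: decrease in intracellular ATP (CellTiter-Glo luminescence) in 2500 LYMP2-015 lymphoblastoid cells/well after 24 h compound exposure at 37 C. Concentration-response data fitted with the standard Hill equation to give AC50.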

[13] = Cell Viability - LYMP2-021 (AID 974); also: potency is read from the fitted curve at half-maximal effect; nearly all actives have a fitted effect of over 55% in size
Procedure, shortened: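 AC50 values come from Hill-equation fits to CellTiter-Glo luminescence (ATP content), read after 24 hour compound exposure at 37 C of 2500 LYMP2-021 lymphoblastoid cells/well; tetraoctylammonium bromide as positive control.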

[14] = Cell Viability - LYMP2-023 (AID 975)
Procedure, shortened: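 Intracellular ATP, read by CellTiter-Glo luminescence, reports viability after 24 hr compound exposure at 37 C. 2500 lymphoblastoid cells/well (LYMP2-023) seeded 5 hr beforehand; Hill fits give AC50; positive control tetraoctylammonium bromide.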

[15] = Cell Viability - LYMP2-025 (AID 976); details: LYMP2-025 lymphoblastoid cell viability; activity change, negative = cytotoxicity: at 92.2 µM (top of the series); also: potency is read from the fitted curve at half-maximal effect
Procedure, shortened: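 Cytotoxicity read as loss of intracellular ATP (luciferase luminescence) after 24 h compound treatment at 37 C. Uses LYMP2-025 lymphoblastoid cells in 1536-well format; Hill-equation modelling gives AC50; tetraoctylammonium bromide as positive control.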

[16] = Cell Viability - LYMP2-002 (AID 977); also: potency is read from the fitted curve at half-maximal effect
Procedure, shortened: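 In this qHTS viability screen, 2500 human lymphoblastoid cells per well receive compound for 24 hr at 37 C, and luciferase-based ATP luminescence gives the viability signal. Tetraoctylammonium bromide serves as positive control.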

[17] = Cell Viability - LYMP2-006 (AID 978); also: potency is read from the fitted curve at half-maximal effect; nearly all actives have a fitted effect of over 60% in size
Procedure, shortened: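 Concentration-dependent loss of intracellular ATP in a human lymphoblastoid line after 24 hr treatment at 37 C was measured by CellTiter-Glo luminescence, with AC50 values obtained from standard Hill-equation modelling.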

[18] = Cell Viability - LYMP2-008 (AID 980); also: potency is read from the fitted curve at half-maximal effect; nearly all actives have a fitted effect of over 60% in size
Procedure, shortened: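 Cytotoxicity determined from ATP-dependent luciferase luminescence (CellTiter-Glo) following 24 h compound exposure of human lymphoblastoid LYMP2-008 cells at 37 C. Concentration-response data fitted to the Hill equation to give AC50.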

[19] = Cell Viability - LYMP2-012 (AID 982); details: LYMP2-012 lymphoblastoid cell viability qHTS; activity change, negative = cytotoxicity: at 92.2 µM (top of the series)
[20] = Cell Viability - LYMP2-014 (AID 983); also: potency is read from the fitted curve at half-maximal effect; nearly all actives have a fitted effect of over 50% in size
Procedure, shortened: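 Intracellular ATP loss, read by luciferase luminescence, measures acute cytotoxicity after 24 h compound exposure of lymphoblastoid LYMP2-014 cells (2500/well, 37 C). Concentration-response data fitted to the Hill equation for AC50.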

[21] = Cell Viability - LYMP2-022 (AID 987)
Procedure, shortened: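 Cytotoxicity read as decreased cellular ATP (CellTiter-Glo luminescence, 30 min room temperature) after 24 hours compound exposure of 2500 lymphoblastoid LYMP2-022 cells/well at 37 C. Concentration-response data fitted with standard Hill equation for AC50.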

[22] = Cell Viability - LYMP2-026 (AID 989); also: potency is read from the fitted curve at half-maximal effect; nearly all actives have a fitted effect of over 50% in size
Procedure, shortened: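 Cytotoxicity read as ATP-dependent luminescence (CellTiter-Glo, 30 min room temperature) after 24 h compound treatment at 37 C. LYMP2-026 lymphoblastoid line seeded at 2500 cells/well; AC50 derived by standard Hill equation.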

[23] = molecular target: Bile acid receptor (Homo sapiens) (UniProt Q96RI1); experiment: qHTS assay for small molecule antagonists of farnesoid X receptor signaling (AID 588526; calls by dose curve; also: % is scaled to controls: 0 for no effect and ±100 for the full control effect); details: HEK293T FXR-UAS-bla, beta-lactamase ratio, antagonist mode; activity change, negative = inhibition: at 76.7 µM (top of the series)
Procedure, shortened: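 Concentration-response titrations were fitted to the Hill equation for half-maximal inhibition and maximal response, with data normalised to 50 uM chenodeoxycholic acid and DMSO control wells. Cells: FXR-UAS-bla HEK293T, dialyzed FBS.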

[24] = molecular target: Peroxisome proliferator-activated receptor gamma (Homo sapiens) (UniProt P37231); experiment: qHTS assay for small molecule antagonists of peroxisome proliferator-activated receptor gamma signaling (AID 588537; active = well fitted inhibition curve with a large enough effect in the signal ratio, with a control signal flat, not every such curve was filed as active; inconclusive = small, poorly fitted or top-dose-only effect, or effect the other way, or a change in a side signal; the % refers to the signal ratio;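 also: reporter cells co-stimulated with 50 nM rosiglitazone agonist during compound treatment; % of control where 0% means no effect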); details: HEK293 PPARg-UAS-bla, beta-lactamase ratio, antagonist mode; activity, negative = inhibition: at 76.8 µM (top of the series) unless noted
Procedure, shortened: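 Compounds are tested as concentration series for inhibition of rosiglitazone-driven (50 nM) reporter expression in GeneBLAzer PPAR-gamma-UAS-bla HEK293 cells. After 16 h at 37 C, CCF4 substrate is added for 2 h at room temperature and blue/green fluorescence is measured.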

[25] = qHTS assay for small molecule agonists of the antioxidant response element (ARE) signaling pathway (AID 651741; active = well fitted activation curve with a large enough effect in the signal ratio; inconclusive = small, poorly fitted or top-dose-only effect, or effect the other way, or a change in a side signal; the % refers to the signal ratio; also: potency is read from the fitted curve at half-maximal effect); details: HepG2 ARE-bla reporter, beta-lactamase FRET ratio, 16 h; activation: at 96 µM (top of the series) unless noted
Procedure, shortened: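 Reporter: beta-lactamase under ARE, stably in HepG2. Exposure: 16 h, 37 C, compounds delivered in DMSO by pin tool after 5 h cell preincubation. Readout: FRET substrate fluorescence after 2 h at RT.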

[26] = qHTS assay for small molecule activators of the p53 signaling pathway (AID 651743; active = well fitted activation curve with a large enough effect in the signal ratio, not every such curve was filed as active; inconclusive = small, poorly fitted or top-dose-only effect, or a change in a side signal; the % refers to the signal ratio; also: potency is read from the fitted curve at half-maximal effect); details: HCT-116 p53RE-bla, beta-lactamase FRET ratio, 16 h; activation: hits give high values
Procedure, shortened: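 Agonist-mode quantitative HTS in HCT-116 cells carrying a p53-response-element beta-lactamase reporter; 16 h compound treatment at 37 C, then FRET substrate loading for 2 h at room temperature and fluorescence read.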

[27] = qHTS assay to identify small molecules that stimulate interleukin-8 (IL-8) secretion (AID 651758; active = well fitted activation curve with a large enough effect in the signal ratio; inconclusive = small, poorly fitted or top-dose-only effect, or effect the other way, or a change in a side signal; the % refers to the signal ratio; also: potency is read from the fitted curve at half-maximal effect); details: HTRF ratio (665/615); activation: at 92.2 µM (top of the series)
Procedure, shortened: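 Quantitative HTS in THP-1 monocytic cells at 2000 cells per well, with 16 hrs compound incubation at 37 C. IL-8 in the medium was then quantified by HTRF immunoassay, read after 1-3 hrs at room temperature.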

[28] = qHTS assay for small molecule antagonists of the retinoid-related orphan receptor gamma (ROR-gamma) signaling pathway - cell viability counter screen (AID 720652; active = well fitted curve in the direction sought with a large enough effect in the repeat runs; inconclusive = weak or mixed curves; inactive = no such curve, though single readings can be large; an effect the other way counts as inactive or inconclusive;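 also: potency is read from the fitted curve at half-maximal effect; compound exposure lasted 16 hr before ATP read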)
Procedure, shortened: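 Cytotoxicity counter screen: intracellular ATP (CellTiter-Glo luminescence) measured in the doxycycline-induced CHO RORE-luciferase reporter line after 16 hr compound exposure at 37 C, 5% CO2.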

[29] = qHTS assay for cell viability of HEK293 cells (AID 743288); details: ATP luminescence (CellTiter-Glo), 18 h; max response: hits give low values; also: potency is read from the fitted curve at half-maximal effect; nearly all actives have a fitted effect of over 50% in size
Procedure, shortened: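 Quantitative high-throughput screen: compounds were pinned onto parental HEK293 cells (2,000 per well) after a minimum 5 h settling at 37 C, incubated 18 h at 37 C, and intracellular ATP measured by luciferase luminescence.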

[30] = qHTS assay for cell viability of the p53RE-bla HCT-116 cell line (AID 743292)
Procedure, shortened: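 Quantitative high-throughput format: compounds in DMSO were pinned onto p53RE-bla HCT-116 cells (4,000/well) and incubated 16 h at 37 C. Total intracellular ATP, read by CellTiter-Glo luminescence, reflects viable cell number.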
Tags tell the direction and shape of the fitted curve.

Sequence of UniProt Q96RI1 (Q96RI1 whole entry, looked up): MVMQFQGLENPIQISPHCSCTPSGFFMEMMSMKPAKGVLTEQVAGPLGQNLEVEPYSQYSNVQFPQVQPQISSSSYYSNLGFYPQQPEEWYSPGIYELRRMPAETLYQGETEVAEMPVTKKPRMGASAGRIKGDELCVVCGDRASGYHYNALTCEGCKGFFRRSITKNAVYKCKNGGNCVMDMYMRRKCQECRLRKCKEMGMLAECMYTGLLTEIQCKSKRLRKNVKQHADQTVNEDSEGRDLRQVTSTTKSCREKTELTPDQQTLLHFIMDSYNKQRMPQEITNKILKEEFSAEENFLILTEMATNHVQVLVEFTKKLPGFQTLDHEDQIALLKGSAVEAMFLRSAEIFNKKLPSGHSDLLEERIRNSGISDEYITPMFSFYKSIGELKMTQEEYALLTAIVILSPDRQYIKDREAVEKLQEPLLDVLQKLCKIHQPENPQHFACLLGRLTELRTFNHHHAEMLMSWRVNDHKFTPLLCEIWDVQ

CCCCC/C=C/C=C/C=O
inactive: Potency [23]
inconclusive: Potency [1] 79.4 µM [rising, single point] | caspase-3 activation [2] 33.6% | caspase-3 activation [3] 30.6% | Potency [6] 12.6 µM [cytotoxic, single point] | Potency [7] 79.4 µM [cytotoxic, single point] | Potency [8] 50.1 µM [cytotoxic, partial curve, poor fit] | Potency [9] 50.1 µM [cytotoxic, partial curve, poor fit] | Potency [15] 79.4 µM [cytotoxic, partial curve, poor fit] | Potency [22] 50.1 µM [cytotoxic, partial curve, poor fit] | activity, negative = inhibition [24] -27.9% and -16.3% | Potency [26] 44.7 µM [side channel, falling, partial curve, poor fit] | Potency [27] 75 µM [activator, single point] | Potency [29] 50.1 µM [cytotoxic, partial curve, poor fit] | Potency [30] 50.1 µM [cytotoxic, partial curve, poor fit]
active: caspase-3 activation [4] 163% | Potency [5] 50.1 µM | Potency [10] 39.8 µM | Potency [11] 50.1 µM | Potency [12] 31.6 µM | Potency [13] 39.8 µM | Potency [14] 50.1 µM | Potency [16] 50.1 µM | Potency [17] 50.1 µM | Potency [18] 39.8 µM | Potency [19] 50.1 µM | Potency [20] 50.1 µM | Potency [21] 50.1 µM | Potency [25] 48.6 µM | Potency [28] 23.7 µM
